Where two headings read alike, the source gives them in different places.
System: stable inducible PC12 cell line expressing A53T α-synuclein
[1] = stable PC12, doxycycline 48 h, switched off 24 h, compounds all 1 μM, DMSO control, FIG. 1
[2] = stable PC12, 24 h, 1 μM rilmenidine, 500 μM 2′5′ ddA, 24 μM forskolin, 1 mM db-cAMP, water control, FIG. 8
[3] = cAMP analogues, 1 μM/10 μM listed

COC(=O)C1=C(C)NC(C)=C([N+](=O)[O-])C1c1ccccc1C(F)(F)F (racemic) [(±)-Bay K8644]
A53T α-synuclein clearance [1]: retarded

C[C@H]1O[C@@H](n2cnc3c(N)ncnc32)C[C@@H]1O [2′5′ddA, 2′5′-dideoxyadenosine]
A53T α-synuclein clearance [2]: enhanced

O=C(Nc1ncnc2c1ncn2[C@@H]1O[C@@H]2COP(=O)(O)O[C@H]2[C@H]1O)c1ccccc1 [6-Bnz-cAMP, N^6Benzoyl-cAMP]
A53T α-synuclein clearance [3]: no effects

CO[C@@H]1[C@@H]2OP(=O)(O)OC[C@H]2O[C@H]1n1c(Sc2ccc(Cl)cc2)nc2c(N)ncnc21 [8-CPT-2-Me-cAMP, 8-(4-Chlorophenylthio)-2′-0-methyl-cAMP]
A53T α-synuclein clearance [3]: slowed

CCCCCCOC(=O)[C@]1(O)C[C@@H]2O[C@@]1(C)n1c3ccccc3c3c4c(c5c6ccccc6n2c5c31)C(=O)NC4 [KT 5720]
A53T α-synuclein clearance (stable PC12, 1 μM KT5720, 24 h, DMSO control, FIG. 10): did not enhance

Clc1cccc(Cl)c1NC1=NCCN1 [clonidine, N-(2,6-dichlorophenyl)-4,5-dihydro-1H-imidazol-2-amine]
A53T α-synuclein clearance [1]: enhanced

CCCC(=O)Nc1ncnc2c1ncn2[C@@H]1O[C@@H]2COP(=O)(O)O[C@H]2[C@H]1OC(=O)CCC [dibutyryl cAMP, N^6,2-O-Dibutyryl-cAMP]
A53T α-synuclein clearance [2]: opposite effects

Nc1cc(N2CCCCC2)nc(N)[n+]1[O-] [minoxidil, 6-(1-Piperidinyl)-2,4-pyrimidinediamine 3-oxide]
A53T α-synuclein clearance [1]: enhanced

C1COC(NC(C2CC2)C2CC2)=N1 [rilmenidine, 2-[N-(Dicyclopropylmethyl)amino]oxazoline hemifuramate]
A53T α-synuclein clearance [2]: enhance

PACAP: pituitary adenylate cyclase-activating polypeptide, natural ligand activating Gsα; PACAP 38, Ovine from Calbiochem
A53T α-synuclein clearance (1 μM or 10 nM PACAP, FIG. 16): retarded

calpastatin
effect on PACAP-retarded A53T α-synuclein clearance (10 nM PACAP with or without 10 μM calpastatin or 500 μM 2′5′ ddA, 24 h, FIG. 17): not blocked

rapamycin
A53T α-synuclein clearance (stable PC12, screen, known autophagy inducers, concentration not given): enhanced

Source: patent US20100113379A1, “cAMP DEPENDENT INDUCTION OF AUTOPHAGY” (priority 2007, published 2010)
